PubChem BioAssay (NCI)
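1) Cells in 96-well plates. 2) Compound, 48 h, 5 concentrations. 3) Linear interpolation between surrounding doses. 4) Unreached endpoint = highest concentration. The concentration for 50% growth inhibition is given as GI50. The concentration for full growth arrest is given as TGI.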

System: MDA-MB-468 breast
Test: NCI anticancer screen, dose series, 48 h

**Q.** With `CN[C@H]1C[C@@H]2O[C@@](C)([C@H]1OC)n1c3ccccc3c3c4c(c5c6ccccc6n2c5c31)C(=O)NC4` as the compound, how does the GI50 read?
**A.** 1.66 nM

**Q.** What about the TGI of the same compound?
**A.** 13.5 nM
